“And” between values parts separate entries of the source, which are not always exact repeats. Identical values can stand only once. The campaign covered roughly 280,000 compounds. About 1,100 (0.39%) were called active. The shares of active, inactive and inconclusive entries below differ from those in the screen. The call rests on the fitted dose curve; in most records, active means well fitted inhibition curve with a large enough effect; inconclusive means small, poorly fitted or top-dose-only effect, or effect the other way; inactive means flat fitted curve, though single readings scatter. A potency beside an inconclusive call is a rough fit, not a confirmed value.
Target: Microtubule-associated protein tau (Homo sapiens) (UniProt P10636)
Sequence of UniProt P10636 (P10636 whole entry, looked up): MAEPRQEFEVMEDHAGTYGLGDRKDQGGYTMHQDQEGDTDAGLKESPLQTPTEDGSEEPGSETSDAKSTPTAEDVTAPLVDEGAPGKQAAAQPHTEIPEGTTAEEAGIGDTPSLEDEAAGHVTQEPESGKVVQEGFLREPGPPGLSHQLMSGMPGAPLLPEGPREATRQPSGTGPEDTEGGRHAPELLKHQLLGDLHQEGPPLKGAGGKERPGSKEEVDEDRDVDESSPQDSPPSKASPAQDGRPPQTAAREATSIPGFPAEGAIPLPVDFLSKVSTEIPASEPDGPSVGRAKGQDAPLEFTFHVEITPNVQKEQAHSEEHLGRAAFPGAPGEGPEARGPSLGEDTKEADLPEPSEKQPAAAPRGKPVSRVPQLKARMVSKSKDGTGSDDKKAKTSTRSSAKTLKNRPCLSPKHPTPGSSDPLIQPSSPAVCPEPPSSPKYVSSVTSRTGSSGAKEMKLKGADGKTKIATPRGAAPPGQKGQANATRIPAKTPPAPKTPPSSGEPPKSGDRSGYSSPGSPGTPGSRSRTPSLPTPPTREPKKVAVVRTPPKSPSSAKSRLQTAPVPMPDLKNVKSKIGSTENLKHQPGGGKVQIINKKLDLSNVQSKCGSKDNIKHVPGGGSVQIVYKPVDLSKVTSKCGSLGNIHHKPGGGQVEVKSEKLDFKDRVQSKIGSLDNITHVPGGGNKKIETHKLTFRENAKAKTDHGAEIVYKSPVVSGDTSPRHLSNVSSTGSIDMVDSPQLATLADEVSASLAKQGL
Test: qHTS for Inhibitors of Tau Fibril Formation, Fluorescence Polarization; further: nearly all actives have a fitted effect of over 55% in size
Settings: K18 P301L tau heparin fibrillization, Alexa594 FP, 6 h; series mostly up to 57.7 µM; activity, negative = inhibition: at the top concentration
How it was run: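 Human K18 P301L fragment (15 uM unlabeled plus 0.24 uM Alexa 594-labeled) in 100 mM sodium acetate pH 7 with compound, aggregation induced by 20 uM heparin for 6 hr at 37 C. ThT (30 uM) added for 1 hr, then Alexa 594 FP read.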
On the % scale 0 is the no-effect control and ±100 the full control effect; potency means the concentration at half of the fitted maximal effect; tags describe the fitted curve by direction and shape.

Potency, inconclusive:
CCCCC(=O)NCCc1c(Cc2ccccc2)[nH]c2ccccc12 17.8 µM [activator, single point]
Cc1ccc(C(=O)CSc2nc(-c3ccccc3)nc3c2CCCC3)c(C)c1 8.91 µM [inhibitor, single point]
COCCNC(=O)CSc1nc(-c2cc(OC)c(OC)c(OC)c2)[nH]c1-c1ccc(Cl)cc1 11.2 µM [activator, partial curve, poor fit]
C/C(Cl)=C\Cn1c(O)c(N=NC(N)=S)c2cc(Br)ccc21 39.8 µM [activator, single point]
O=C(CSc1n[nH]c(=O)[nH]c1=O)c1ccccc1[N+](=O)[O-] 25.1 µM [inhibitor, single point]
COC(=O)C1(C(=O)OC)Cc2conc2[C@H]1c1ccccc1 3.98 µM [inhibitor, single point] and 2.82 µM [inhibitor, single point]
CCCCC(Sc1nc(N)c(NC(=O)c2ccc(OCC)cc2)c(=O)[nH]1)C(=O)O (stereo not given) 0.0562 µM [inhibitor, full curve, poor fit]
CC(C)CNC(=O)CCc1c[nH]c2ccccc12 0.141 µM [inhibitor, full curve, poor fit]
CC(=O)c1sc(N/N=C\c2ccc(C)cc2)nc1C 1.26 µM [activator, partial curve, poor fit]
Nc1c(C(=O)NCc2ccc(Cl)cc2Cl)nnn1Cc1ccc(Br)cc1 14.1 µM [inhibitor, partial curve]
O=[N+]([O-])c1ccccc1NCCOc1ccccc1 31.6 µM [inhibitor, single point]
CC(=O)c1ccc(S(=O)(=O)Nc2ccc(-c3ccc(N4CCCCCC4)nn3)cc2)cc1 39.8 µM [inhibitor, single point]
Cc1ccc(Nc2c(-c3ccc(N(C)C)cc3)nc3nc[nH]n23)cc1 22.4 µM [inhibitor, single point]
COc1ccc(CCNC(=S)NCc2ccc(Cl)c(Cl)c2)cc1OC 12.6 µM [inhibitor, partial curve]
O=C(c1cccnc1NCc1ccc(F)cc1)N1CCOCC1 3.16 µM [inhibitor, single point]
COc1cccc(NC(=O)Cn2c(=O)cc(C)c3c(C)nn(-c4cccc(F)c4)c32)c1 0.316 µM [inhibitor, full curve]
COc1ccc(C2CC(c3ccc(C)cc3)Nc3nc(N)nn32)cc1 (stereo not given) 39.8 µM [inhibitor, single point]
CCNC(=O)C/C(C)=N/NC(=O)C12CC3CC(CC(C3)C1)C2 35.5 µM [inhibitor, single point]
O=C1c2ccccc2-c2nc3ccccc3nc21 31.6 µM [inhibitor, partial curve]
Cc1ccc(C)c(C(=O)CN2C(=O)c3ccccc3S2(=O)=O)c1 14.1 µM [inhibitor, partial curve]
CCOc1ccc(/C=C/C(=O)Nc2sc3c(c2C(=O)OC)C(C(=O)OC)CC3)cc1 (stereo not given) 7.94 µM [inhibitor, full curve]
CCOC(=O)c1ccc2[nH]c3c(c2c1)CCCC3C(=O)OCC (stereo not given) 8.91 µM [inhibitor, single point]
Cn1c(NCCCN2CCOCC2)nc2c1c(=O)n(Cc1ccc(Cl)c(Cl)c1)c(=O)n2C 12.6 µM [activator, partial curve]
COC(=O)c1ccc(NC(=O)CSc2nc(C)cc(C)c2C(=O)Nc2ccccc2)cc1 20 µM [inhibitor, partial curve, poor fit]
CCc1cccc(-n2c(=O)c3cccnc3n2CC(=O)NCc2ccccc2)c1 3.98 µM [inhibitor, full curve]
CCCNS(=O)(=O)c1ccc2nc(NC(=O)c3ccc(F)cc3)sc2c1 39.8 µM [inhibitor, single point]
COc1ccc([N+](=O)[O-])cc1C1NN=C(c2ccccc2O)S1 (stereo not given) 44.7 µM [inhibitor, single point]
O=C(Oc1ccc(NC2=C(Cl)C(=O)c3ccccc3C2=O)cc1)c1ccc([N+](=O)[O-])cc1 10 µM [inhibitor, partial curve]
COC(=O)c1ccccc1NS(=O)(=O)c1ccc2c3c(cccc13)C(=O)N2 17.8 µM [inhibitor, partial curve]
Cc1ccc(Cn2cc(C(=O)c3ccc(F)cc3)c(=O)c3cc4c(cc32)OCCO4)cc1 1.78 µM [inhibitor, partial curve]
N#Cc1ccccc1NC(=O)c1ccc2c(Cl)c3c(nc2c1)CCCC3 8.91 µM [inhibitor, single point]
O=C1NC(=Nc2ccc3ccccc3c2)S/C1=C/c1ccco1 28.2 µM [inhibitor, single point]
Cc1onc(-c2c(F)cccc2Cl)c1C(=O)NC(=S)NC1CCSC1=O (stereo not given) 0.562 µM [inhibitor, full curve, poor fit]
COc1ccc(Cl)cc1NC(=S)N1CCN(S(C)(=O)=O)CC1 0.199 µM [inhibitor, full curve, poor fit]
O=C(CSc1nnc(Cc2ccccc2)o1)N1CCOCC1 0.562 µM [inhibitor, single point]
O=C(O)C1Nc2c(C(=O)N3CCOCC3)cccc2C2C=CCC12 (stereo not given) 7.08 µM [inhibitor, partial curve]
COc1cc2c(=O)n(Cc3ccccc3Cl)c(=O)n(CC(=O)Nc3ccccc3)c2cc1OC 7.94 µM [inhibitor, partial curve]
COc1ccc(C)cc1NC(=O)C1CCN(S(=O)(=O)c2c(C)noc2/C=C/c2ccco2)CC1 5.01 µM [inhibitor, partial curve]
Cc1ccccc1OCC(=O)N/N=C/c1c(C)nn(-c2ccccc2)c1Cl 44.7 µM [inhibitor, single point]
CC(C(=O)O)N1C(=O)/C(=C/C=C/c2ccco2)SC1=S (stereo not given) 28.2 µM [inhibitor, single point]
O=C(CN1C2CCCC1CC(NC(=O)c1ccco1)C2)Nc1ccccc1 (stereo not given) 0.178 µM [inhibitor, full curve, poor fit]
COc1cccc(-n2c(SCC(=O)c3c[nH]c4ccccc34)nc3ccccc3c2=O)c1 14.1 µM [inhibitor, partial curve]
COc1ccc(CN2C(=O)c3oc4ccc(F)cc4c(=O)c3C2c2ccc(O)cc2)cc1 (stereo not given) 35.5 µM [inhibitor, partial curve, poor fit]
Cc1cc(F)ccc1S(=O)(=O)Nc1ccc2oc3c(c2c1)CC(C)CC3 (stereo not given) 15.8 µM [inhibitor, partial curve, poor fit]
Cc1cc(C)cc(NC(=S)Nc2ccc(Cl)c(Cl)c2)c1 39.8 µM [inhibitor, single point]
CO[C@H]1COC(=O)C/C=C\[C@@H](C)COC(=O)[C@@H](CCSC)NC(=O)C/C=C\[C@@H]1C 7.08 µM [inhibitor, single point]
Cc1ccccc1Nc1nn2c(=O)c3ccccc3nc2s1 0.0708 µM [inhibitor, full curve, poor fit]
O=C(Nc1ccc(O)c(-c2nc3ccccc3o2)c1)c1sc2ccccc2c1Cl 12.6 µM [inhibitor, single point]

Potency, active:
O=C(Nc1ccc(F)cc1)c1cccnc1NCCc1ccccc1 12.6 µM

activity, negative = inhibition, inactive:
COC(=O)CC1Oc2ccccc2-n2cc(-c3ccc(C)cc3)nc21 (stereo not given) -7.71%
Cc1cc(C)cc(C(=O)N2CCCCCC2)c1 -1.41%
COC(=O)/C=C/C1c2ccccc2C(OC)C1C (stereo not given) 5.06% [at 11.6 µM]
Cc1cc(NC(=O)CC#N)n(-c2nc3ccccc3[nH]2)n1 -2.05%
CCc1cccc(NC(=O)c2cn3c4c(ccc(Cl)c4c2=O)OC(C)C3)c1 (stereo not given) -8.24%
COc1ccc(-c2nn(-c3ccccc3)cc2CNC(=O)c2cccc([N+](=O)[O-])c2)cc1 11.6%
Cc1ccc2c(c1)c1c(c(=O)n(-c3ccccc3C)c(=O)n1CC(=O)N1CCCC1)n2C 2.29%
Cc1cccc(OCCCC(=O)NC(C)C)c1 -4.67%
CCN1C(=O)/C(=C2/C=CC=CN2C)OC1=S -2.16%
O=C1C(c2cc(=O)c3ccccc3[nH]2)=C(O)c2ccccc21 9.75%
CCOC(=O)C1CCN(S(=O)(=O)c2cc3c4c(c2)CC(=O)N4CCC3)CC1 -3.43%
CC(=O)/C(N=Nc1ccc(SC(F)F)cc1)=C(\C)O 2.35%
CCOc1ccc(C(=O)N2CCSC2=S)cc1 -7.01%
S=C(NC1CC1)N1CCN(c2ccc(Cl)cc2)CC1 -0.347%
O=C1CS/C(=N\C(=O)N2c3ccccc3Sc3ccccc32)N1 4.48%
CC(C)C[C@@H]1NC(=O)[C@H](C(C)C)NC(=O)c2cc([N+](=O)[O-])cc(I)c2OCC[C@@H](C(N)=O)NC1=O 3.64%

Source: PubChem BioAssay AID1468 (National Center for Advancing Translational Sciences (NCATS), 2008)
